This passage reports self-cleavage results from the RNAGym collection of RNA variant scans (doi:10.1093/nar/gkz1192).

B1: CPEB3 Ribozyme (parent)
chain: UAACAGGGGGCCACAGCAGAAGCGUUCACGUCGCAGCCCCUGUCAGAUUCUGGUGAAUCUGCGAAUUCUGCUGUAUAUCUC

The source gives no read counts; variants with many changes may rest on few reads.

In this series the parent is B1. Put plainly: self-cleavage, relative activity (ratio to wild type); higher = more cleavage; in vitro, sequencing. Put shortly:
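Libraries of CPEB3 self-cleaving ribozyme mutants came from rounds of error-prone PCR and carried barcodes, which DNA sequencing matched to variants. In vitro transcription used T7 RNA polymerase at 37°C for 5 hours, with a further 15 min in DNase I before EDTA stopped the reaction; the ribozymes cleaved during both steps. The RNA was reverse transcribed with template switching and sequenced on Illumina. Relative activity is the cleaved/total read fraction of a variant divided by that of the unmutated ribozyme, averaged over three batches with at least 5 reads.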
Turning to UAUCAGGGGGCCACAGCAGAGGCGUUCACGUCGCAGCCCCUGUCAGAUUCUGGCGAAUCUGCGAAUUCUGCUGUAUAUCUC [A3U A21G U54C], the self-cleavage was determined as 0.93. In the case of UAUCAGGGGGCCACAGCAGAAGCGUUCGCGUCGCAGCCCCUGUCAGAUUCUGGUGAAUCUGCGAAUCCUGCUGUAUAUCUC [A3U A28G U67C], the self-cleavage worked out at 0.13. Then UAUCAGGGGGCCACAGCAGAAGCGUUCACGUCGCGGCCCCCGUCAGAUUCUGGUGUAUCUGCGAAUUCUGCUGUAUAUCUC [A3U A35G U41C A56U], with 1.22; and UAUCAGGGGGCCACAGCAGAAGCGUUCGCUUCGCAGCCCCCGUCAGAUUCUGGUGAAUCUGCGAAUUCUGCUGUAUAUCUC [A3U A28G G30U U41C], with 0.15; and UAUCAGGGGGCCACAGCAGAAGCGUUCACGUCGCGGCCCCUGUCAGAUUCUGGUGAAUCAGCGAAUUCCGCUGUAUAUCUC [A3U A35G U60A U69C], with 0.66. For the variant UAUCAGGGGGCCACAGCAGAAGCGUUCACGUCGCUGCCCCUGUCAGAUUCUGGUGAAUCUGCGAAUUCUGCUGUAUAUCAC [A3U A35U U80A], the self-cleavage amounted to 0. Then UAUCAGGGGGCCACAGCAGAAGCGUUCACGUCGCAGCCCCUGUCGGAUCCUGGUGAAUCUGCGAAUUCCGCUGUAUAUCUC [A3U A45G U49C U69C], with 0.31; and UAUCAGGGGGCCACAGCAGAGGCGUUCACGUCGCAGCCCCGGUCAGAUUCUGGUGAAUCUGGGAAUUCUGCUGUACAUCUC [A3U A21G U41G C62G U76C], with 0.16; and UAUCAGGGGGCCACAGCAGAAGCGUUCGCGACGCAGCCCCUGUCAGAUUCUGGUGAAUCUGCGGAUCCUGCUGUAUACCUC [A3U A28G U31A A64G U67C U78C], with 0.05. In the case of UAUCAGGGGGCCACAGCAGUAGCGUUCACGUCGCAGCCCCAGUCAGAUUCUGGUGAAUCUGCGAAUUCUGCUGUAUAUCUC [A3U A20U U41A], the self-cleavage was 0.18. On to UAUCAGGGGGCCACAGCAGAAGCGUUCACGUCGCUGCCCCUGUCAGAUUCUGGUGUAUCUGCGAAUUCUGCUGUAUAUCCC [A3U A35U A56U U80C], for which the self-cleavage came out at 0.46. With UAUCAGGGGGCCACAGCAGAGGCGUUCACGUCGCAGACCCUGUCAGAUUCUGGUGAAUCUGCGAAUUCUGCUGUAUAUCUC [A3U A21G C37A], the self-cleavage is 0.12.

With UAUCAGGGGGCCACAGCAGAGGCGUUCACGUCGCAGCCCUUGUCAGAUUCUGGUGAAUCUGCGAAUUCAGCUGUAUAUCUC [A3U A21G C40U U69A], the self-cleavage is 0.13. Regarding UAUCAGGGGGCCACAGCAGUAGGGUACACGUCGCAGCCCCUGUCAGAUUCUGGUGAAUCUGCGAAUUCUGCUGUAUAUCUC [A3U A20U C23G U26A], the self-cleavage turned out to be 0.11. In the case of UAUCAGGGGGCCACAGCAGAUGCGUUCACGUCGCAGCCCCUGUCAGAUCCUGGAGAAUCUGCGAAUUCUGCUGUAUAUCUC [A3U A21U U49C U54A], the self-cleavage came to 0.29. In the case of UAUCAGGGGGCCACAGCAGAAGCGUUCACGUCGCAGCCCCUGUCUGAUUCUGGUGAACCUGCGAAUUCUGCUGUAUUUCAC [A3U A45U U58C A77U U80A] it was 0.19; in that of UAUCAGGGGGCCACAGCAGACGCGUUCACGUCGCAGCCCCUGUCAGAUUCUGGUGAAUUUGCGAAUUCAGCUGUAUAUCUC [A3U A21C C59U U69A], 0.05; in that of UAUCAGGGGGCCACAGCAGAAGCGUUCACGUCGCCGCCCUUGUCAGAUUCUGGUGAAUCUGCCAAUUCUGCUGUAUAUCUC [A3U A35C C40U G63C], 0.19. Regarding UAUCAGGGGGCCACAGCAGGAGCGUUCACGUCGCAGCCCCUGUCAGAUUCUGGUGAAUCUGCGAAUUCUGCAGUAUACCUC [A3U A20G U72A U78C], the self-cleavage was 1.05. In the case of UAUCAGGGGGCCACAGCAGUAGCGUUCACGUCGCAGCCCCCGUCAGAAUCUGGUGAAUCUGCGAAUUCUGCAGUAUAUCUC [A3U A20U U41C U48A U72A], the self-cleavage was 0.08. For the variant UAUCAGGGGGCCACAGCAGAAGCGUUCGCGACGCAGCCCUUGUCAGAUUCUGGUGAAUCUGCGAAUUCUGCCGUAUAUCUC [A3U A28G U31A C40U U72C], the self-cleavage came out at 0.2.

Consider UAUCAGGGGGCCACAGCAGAAGCGUUCGCGCCGCAGCCCCCGUCAGAUUCUGGUGGAUAUGCGAAUACUGCUGUAUAUCUC [A3U A28G U31C U41C A56G C59A U67A], for which the self-cleavage amounted to 0.1. Take UAUCAGGGGGCCACAGCAGAAGCGUUCUCGUCGCAGCCCCUGUCAGAUUCUGGAGAAUCUGCGAAUUCUGCUGUAUAUCCC [A3U A28U U54A U80C]: the self-cleavage was found to be 0.91. Then UAUCAGGGGGCCACAGCAGGAGCGUUCACGUCGCAGCCCCUGUCAGAUUCUGGUGAAUCAGCAAAUUCCGCUGUAUACCUC [A3U A20G U60A G63A U69C U78C], with 0.25; and UAUCAGGGGGCCACAGCAGAAGCGUUCGCGUCGCAGCCCCUGUCAGGUUCUGGCGAAUCUGCGAAUUCUGCUGUUUAACUC [A3U A28G A47G U54C A75U U78A], with 0.27. Then UAUCAGGGGGCCACAGCAGAUGUGUUCACGUCGCAGCCCCUGUCAGAUUCUGGUGAAUCUGCGAAUUCUGCUGUAUAUCUC [A3U A21U C23U], with 0.34. In the case of UAUCAGGGGGCCACAGCAGAAGCGUUCACGUCGCGGCCCCUGUCAGAUUCUGGUGAAUCUGCGAAUUCCGCUGUAUAUCUC [A3U A35G U69C], the self-cleavage came to 1.13. For UAUCAGGGGGCCACAGCAGAAGCGUUCACGUCGCAGCCCCUGUCGGAUUCUGGUGAAUCUGCGAAUUCUGCUGUAUAGCUC [A3U A45G U78G], the self-cleavage turned out to be 1.08.

On to UAUCAGGGGGCCACAGCAGAAGCGUUCGCGUCGCAGCCCCUGUCAGGUCCUGGUGAAUCUGCGAAUUCUGCUGUAUAUCUC [A3U A28G A47G U49C], for which the self-cleavage was 0.11. For the variant UAUCAGGGGGCCACAGCAGUAGCGUUCACGUCGCAGCCCCCGUCAGAUCCUGGUGAAUCUGCGUAUUCUGCUGUAUAUCUC [A3U A20U U41C U49C A64U], the self-cleavage is 0.23. For the variant UAUCAGGGGGCCACAGCAGAGGCGUUCGCGUCGCAGCCCCUGCCAGAUUCUGGUGAAUCUGCGAACUCUGCUGUAUGUCUC [A3U A21G A28G U43C U66C A77G], the self-cleavage amounted to 0.14.

As to UAUCAGGGGGCCACAGCAGAAGCGUUCCCGUCGCAGCCCCUGUCAGAUUCGGGUGAAUCUGCGAAUUCUGCUGUAUAACUC [A3U A28C U51G U78A], the self-cleavage came to 0.74. With UAUCAGGGGGCCACAGCAGAGGCGUCCACGUCGCAGCCCCUGUCAGAUUCAGGUGAAUCUGCGAAUUCUGCUGUAUAUCUC [A3U A21G U26C U51A], the self-cleavage amounted to 0.56. With UAUCAGGGGGCCACAGCAGAAGCGUUCACGUCGCGGCCCCCGUCAGAUUCUGGUGAAUCUGCGAAUUCAGCUGUAUAUCUC [A3U A35G U41C U69A], the self-cleavage came out at 0.9.
